Experimental data as given in PubChem BioAssay AID1468 (National Center for Advancing Translational Sciences (NCATS), 2008).
Among all 280,000 compounds or so, about 1,100 (0.39%) were called active. Inconclusive results, whose numbers are uncertain, are shown with a selection of clear calls. The call rests on the fitted dose curve; in most records, active means well fitted inhibition curve with a large enough effect; inconclusive means small, poorly fitted or top-dose-only effect, or effect the other way; inactive means flat fitted curve, though single readings scatter. Potencies of inconclusive entries are doubtful fits and often do not repeat.

The molecules below were run against Microtubule-associated protein tau (Homo sapiens) (UniProt P10636) (assay: qHTS for Inhibitors of Tau Fibril Formation, Fluorescence Polarization). Conditions: K18 P301L tau heparin fibrillization, Alexa594 FP, 6 h; series mostly up to 57.7 µM.
Sequence of UniProt P10636 (P10636 whole entry, looked up): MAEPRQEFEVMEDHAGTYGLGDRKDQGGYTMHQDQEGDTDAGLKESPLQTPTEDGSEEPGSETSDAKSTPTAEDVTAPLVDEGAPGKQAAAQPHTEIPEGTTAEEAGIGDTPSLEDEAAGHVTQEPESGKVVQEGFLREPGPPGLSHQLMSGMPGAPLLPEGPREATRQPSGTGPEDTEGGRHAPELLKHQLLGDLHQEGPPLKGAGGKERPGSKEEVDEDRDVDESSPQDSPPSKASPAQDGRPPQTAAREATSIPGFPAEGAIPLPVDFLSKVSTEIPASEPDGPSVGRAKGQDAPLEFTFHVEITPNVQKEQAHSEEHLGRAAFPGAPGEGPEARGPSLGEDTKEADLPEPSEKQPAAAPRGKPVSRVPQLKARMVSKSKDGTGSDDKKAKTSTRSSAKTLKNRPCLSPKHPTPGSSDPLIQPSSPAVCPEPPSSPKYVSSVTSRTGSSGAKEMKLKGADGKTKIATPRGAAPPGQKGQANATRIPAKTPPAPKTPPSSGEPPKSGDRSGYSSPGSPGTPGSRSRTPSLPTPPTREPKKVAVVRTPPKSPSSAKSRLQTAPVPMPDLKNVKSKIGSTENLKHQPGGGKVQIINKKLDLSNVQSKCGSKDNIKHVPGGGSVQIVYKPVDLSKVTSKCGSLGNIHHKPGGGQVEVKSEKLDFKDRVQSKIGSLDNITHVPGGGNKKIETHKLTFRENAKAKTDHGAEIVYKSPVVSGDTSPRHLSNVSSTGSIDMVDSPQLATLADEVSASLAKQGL
How it was run: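 Steps: dispense K18 P301L tau (15 uM plus 0.24 uM Alexa 594 tracer, final) in pH 7 sodium acetate; add compound; add heparin (20 uM final); incubate 6 hr, 37 C; add ThT (30 uM final); after 1 hr ambient, read FP.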
Further: nearly all actives have a fitted effect of over 55% in size.
Potency means the concentration at half of the fitted maximal effect; tags describe the fitted curve by direction and shape.

Potency, active:
Cc1cc(-n2c(SCc3ccccc3F)nc3n[nH]c(C)c3c2=N)ccc1Cl 17.8 µM, COc1ccccc1NS(=O)(=O)c1cc(NC(=O)Nc2ccccc2)ccc1N1CCCCC1 22.4 µM, CCN1c2ccccc2N(C)C1(C)c1ccccc1 (stereo unspecified) 15.8 µM

Potency, inconclusive:
COc1ccc(/C=N/Nc2nnc(C)n2N)cc1OC 31.6 µM [inhibitor, partial curve], Clc1ccccc1CN(Cc1ccccc1)c1ncnc2nc[nH]c12 39.8 µM [inhibitor, single point], O=C(N/N=C/c1cn(-c2cccs2)nc1-c1ccccc1)c1ccccc1Cl 20 µM [inhibitor, partial curve], COc1ccc(NS(=O)(=O)c2ccc3c(c2)n(C)c(=O)c(=O)n3C)cc1Cl 0.158 µM [inhibitor, full curve, poor fit], CSC1=NSC2=NC(=O)/C(=C/c3coc4ccccc4c3=O)C(=N)N12 35.5 µM [inhibitor, single point], Nc1cc(OC(=O)c2ccco2)nn1S(=O)(=O)c1ccc(F)cc1 8.91 µM [activator, single point], CN1CCc2cc(NC(=O)Nc3cccnc3)ccc21 17.8 µM [activator, single point], COc1cccc(CNC(=O)c2cccc(NC(=O)c3nsc4ccccc34)c2)c1 15.8 µM [inhibitor, partial curve], Cc1ccccc1NC1=C(Cl)C(=O)OC1OC(=O)c1ccccc1C (stereo unspecified) 31.6 µM [inhibitor, single point], Cc1cc(NC(=O)CCc2ccccc2)c([N+](=O)[O-])cc1C 15.8 µM [activator, partial curve, poor fit], O=[N+]([O-])c1ccc(NC(=S)NCCc2ccc(F)cc2)cc1 31.6 µM [inhibitor, partial curve], CC(C)c1ccccc1-n1cc[nH]c1=S 0.178 µM [inhibitor, full curve, poor fit], Cc1ccc2c(C)c(C(=O)Nc3nnc(C)s3)oc2c1 0.178 µM [inhibitor, full curve, poor fit], CCOc1ccc(NC(=O)Cn2c(=O)n(Cc3ccccc3)c(=O)c3c4c(sc32)CN(C(C)=O)CC4)cc1 17.8 µM [inhibitor, partial curve], CC(=O)c1cccc(Nc2ncnc3c2cnn3-c2cccc(Cl)c2)c1 15.8 µM [inhibitor, partial curve], CC1CCCCN1S(=O)(=O)c1ccc2[nH]c(=O)cc(C(=O)NCCc3ccc(Cl)cc3)c2c1 (stereo unspecified) 35.5 µM [inhibitor, partial curve], CCCCN1C(=O)/C(=C/C=C2\N(C)c3ccccc3C2(C)C)SC1=S 14.1 µM [inhibitor, partial curve, poor fit], CCc1ccc(Nc2nc3c(S(=O)(=O)c4cccc(Cl)c4)nnn3c3ccsc23)cc1 14.1 µM [inhibitor, partial curve], O=C(O)CCNc1cc2ccccc2cc1C(=O)O 20 µM [inhibitor, partial curve, poor fit], O=C(Cc1sc(-c2ccccc2Cl)nc1-c1ccccc1)Nc1ccc(F)cc1 0.316 µM [inhibitor, full curve, poor fit], CCOC(=O)c1sc(=S)n(-c2cc(OC)ccc2OC)c1N 35.5 µM [inhibitor, single point], c1cncc(-c2nnc(-c3cccnc3)nn2)c1 39.8 µM [inhibitor, single point], CCO[C@@H]1OC(C(=O)N2CCCCCCC2)=C[C@H](c2ccc3c(c2)OCO3)[C@H]1CCCO 0.708 µM [activator, single point], O=C(CSc1nc(-c2ccco2)nc2cc(=O)[nH]n12)Nc1ccccc1F 31.6 µM [inhibitor, partial curve], Cc1ccc(S(=O)(=O)Nc2ccc(NC(=O)c3c(F)c(F)c(F)c(F)c3F)cc2)cc1 22.4 µM [inhibitor, partial curve], Oc1c(N=NC(=S)Nc2ccccc2F)c2ccccc2n1Cc1ccccc1Cl 0.126 µM [activator, full curve, poor fit], COCCn1c(=NC(=O)c2cc(-c3cccs3)nc3ccccc23)sc2cc(S(N)(=O)=O)ccc21 17.8 µM [inhibitor, partial curve], CCc1ccc(NC(=O)CSc2nc(NS(=O)(=O)c3ccccc3)cc(=O)[nH]2)cc1 39.8 µM [inhibitor, single point], COc1cc(OC)cc(C(=O)Nc2nc(-c3nnn(-c4ccc(F)c(Cl)c4)c3C)ns2)c1 25.1 µM [inhibitor, single point], O=C(O)C1CSC(c2ccncc2)N1 (stereo unspecified) 39.8 µM [inhibitor, single point], COc1ccc(Cn2c(N)c(S(=O)(=O)c3cccs3)c3nc4ccccc4nc32)cc1 1.58 µM [inhibitor, full curve, poor fit], C/C(=N/NC(=O)CNc1ccc(C)cc1)c1ccc(Cl)cc1 2.24 µM [activator, full curve, poor fit], C=CCOC(=O)C1=C(C)NC(C)=C(C(=O)OCC=C)C1/C=C/c1ccccc1 39.8 µM [inhibitor, single point], Cc1ccc(/C(C#N)=C\c2ccc(N3CCOCC3)o2)cc1 14.1 µM [inhibitor, partial curve, poor fit], Cn1c(COc2ccccc2)nnc1SCC(=O)Nc1ccc(S(N)(=O)=O)cc1 1.58 µM [inhibitor, partial curve, poor fit], O=C(CSc1ccc(-c2cccs2)nn1)Nc1cccc(F)c1 39.8 µM [inhibitor, partial curve, poor fit], COc1ccc(-c2cc(C)no2)cc1S(=O)(=O)N1CC(C)Oc2ccccc21 (stereo unspecified) 11.2 µM [inhibitor, partial curve, poor fit], O=C(NCc1ccco1)c1c[nH]c2ccc(S(=O)(=O)Nc3ccc(F)cc3F)cc2c1=O 28.2 µM [inhibitor, partial curve], Cc1ccc(NS(=O)(=O)c2cc(C(=O)NCCSc3ccc(C)cc3)ccc2C)cc1 25.1 µM [inhibitor, single point], COc1ccc2ccccc2c1C1CC(=O)N2CN(C3CCCCC3)CSC2=C1C#N (stereo unspecified) 28.2 µM [inhibitor, partial curve, poor fit], CC(C)OC(=O)c1ccc(NC(=O)Cn2c(-c3nonc3N)nc3ccccc32)cc1 39.8 µM [inhibitor, single point], O=C(Nc1ccc(F)cc1)C1=CC(=O)N2CCN=C2S1 20 µM [inhibitor, partial curve], COc1ccc(C(=O)CCN2CCCCCC2)cc1 8.91 µM [activator, partial curve, poor fit], CCOc1ccc(-c2nnn(CC(=O)NCCc3c[nH]c4ccccc34)n2)cc1 0.126 µM [activator, full curve, poor fit], CCCCN(CCCC)Cc1ccc(N)cc1 8.91 µM [inhibitor, partial curve], COc1ccc(-c2cnnc(N/N=C/c3ccc(O)c(O)c3)n2)cc1 44.7 µM [activator, single point], COc1ccc(CN(C(=O)CSc2nnc(-c3c[nH]c4ccccc34)o2)c2ccc(F)cc2)cc1OC 11.2 µM [inhibitor, partial curve]

Potency, inactive:
COc1cccc(CN2CCCC(C(=O)c3ccc4c(c3)OCO4)C2)c1O (stereo unspecified), CC1CC(C)CN(C(=O)c2cn(C)c3ccc(S(=O)(=O)N(C)C)cc3c2=O)C1 (stereo unspecified), Cc1cc(NC(=O)c2cccc(S(=O)(=O)N3CCCC3)c2)no1, Cc1nc(SCCOc2ccc(Cl)cc2)[nH]c(=O)c1Cc1ccccc1, CCn1c(SCC(=O)c2ccc(CNC(C)=O)o2)nnc1-c1cccs1, CC(=O)NNC(=S)Nc1cccc(F)c1, O=c1oc(-c2cccs2)nc2sc3c(c12)CCC3, O=C(Nc1cccc(S(=O)(=O)N2CCOCC2)c1)C(c1ccccc1)N1CCCCC1 (stereo unspecified), CCOC(=O)c1c(C)[nH]c(C(=O)C(C)Cl)c1C (stereo unspecified), CCOc1ccc(-c2cc(CCCC(=O)NCCc3ccc(OCC)c(OCC)c3)no2)cc1, COc1cc(-n2c(C)nc3cc(C(=O)NCCN4CCOCC4)ccc32)cc(OC)c1OC, COc1ccc(C(=O)/C=C/c2cc(OC)c(O)c(OC)c2)c(F)c1, COCCn1c(SCC(=O)NCc2ccc3c(c2)OCO3)nc2ccccc2c1=O, CCn1nc(C)c(CNC(=O)CCc2nnc(-c3ccc(C(C)=O)s3)o2)c1C, Cc1c(C(=O)NNc2cc(=O)n(C)c(=O)n2C)cccc1[N+](=O)[O-], Cc1cc(C)cc(NC(=O)C(=O)NCCc2c[nH]c3ccccc23)c1
